# Assay results: PubChem BioAssay AID686979 (National Center for Advancing Translational Sciences (NCATS), 2013)
# Among all 420,000 compounds or so, about 50,000 (12%) were called active. The inconclusive results got no clear call from the source; some entries with a clear call stand among them for comparison. Calls come from the whole dose curve; as a rule, active = well fitted inhibition curve with a large enough effect; inconclusive = small, poorly fitted or top-dose-only effect; inactive = flat fitted curve, though single readings scatter. No potency is given beside an inconclusive call; the fits are too rough.
# Assay: qHTS for Inhibitors of human tyrosyl-DNA phosphodiesterase 1 (TDP1): qHTS in cells in presence of CPT; note: nearly all actives have a fitted effect of over 55% in size
# Conditions: chicken DT40 Tdp1-/-;hTDP1 cells + 20 nM CPT, ATP luminescence, 48 h; activity change, negative = growth inhibition: at 46.2 µM (top of the series) unless noted
# Outline: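 Chicken DT40 Tdp1-/- cells complemented with human TDP1, 400 cells/well, exposed to compounds plus 20 nM camptothecin for at least 48 h at 37 C; viability read as ATP content by CellTiter-Glo luminescence.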
# % is set by controls: 0 for no effect and ±100 for the full control effect; potency is the fitted concentration of half-maximal effect; tags give direction and shape of the fitted curve.
SMILES,Potency,"activity change, negative = growth inhibition"
Cc1ccc(NC(=O)CSc2nnc(CNC(=O)c3ccco3)n2C)cc1,inactive,
O=[N+]([O-])c1c(NCc2ccccc2)cc(N2CCc3ccccc3C2)c2nonc12,"inconclusive [inhibitor, partial curve]",
Cc1c(C)c2ccc(OCC(=O)NCCN3CCOCC3)c(C)c2oc1=O,inactive,
Cc1ccc(CCNC(=O)CCc2nc3ccccc3[nH]2)cc1,,inconclusive: -30.8% [inhibitor]
CC(=O)Oc1cc(O)c2c(=O)c(OC(C)=O)c(-c3ccc(OC(C)=O)c(OC(C)=O)c3)oc2c1,"inconclusive [inhibitor, single point]",
Cc1ccc(N(C)S(=O)(=O)c2cccc(C(=O)NCC(c3ccco3)N3CCCC3)c2)cc1 (stereo unspecified),"inconclusive [inhibitor, single point]",
CCc1nc2ccc(C(=O)NCCCN3CCCC3=O)cn2c1N(C)CCC(C)C,"inconclusive [inhibitor, single point]",
COc1ccccc1CNC(=O)c1cc(=O)c2ccccc2o1,"inconclusive [inhibitor, partial curve, poor fit]",
COc1cc2c(-c3ccc4cc[nH]c4c3)c(-c3ccsc3)oc(=O)c2cc1OC,active: 18.4 µM,
C[C@@H]1CN([C@H](C)CO)C(=O)c2c(c3ccccc3n2C)-c2ccccc2CO[C@@H]1CN(C)C(=O)Nc1ccc2c(c1)OCO2,"inconclusive [inhibitor, single point]",
Cc1ccc([N+](=O)[O-])cc1NC(=O)CN(C(=O)c1ccc(Cl)cc1)C1CCCCC1,active: 20.6 µM,
O=C1Nc2cc(Cl)ccc2Oc2cc(Oc3ccccc3)ccc21,"inconclusive [inhibitor, single point]",
CC1(C)CC(C(=O)N2CCOc3ccc(CN4CCC(Oc5cccnc5)CC4)cc3C2)CCO1 (stereo unspecified),"inconclusive [inhibitor, single point]",
CCc1ccc2c(c1)NC(=O)C2(C)Cc1ccccc1Cl (stereo unspecified),"inconclusive [inhibitor, single point]",
Cc1ccc(NC(=O)Cn2cc(S(=O)(=O)NC(C)C)c(S(=O)(=O)NC(C)C)c2)cc1Cl,"inconclusive [inhibitor, single point]",
Cc1c(CN2CCC(CO)(CCOc3ccccc3)CC2)[nH]c2c(Cl)cccc12,"inconclusive [inhibitor, single point]",
CCO[C@@H]1OC(C(=O)Nc2ccccc2)=C[C@H](c2csc3ccccc23)[C@H]1CCCO,"inconclusive [inhibitor, single point]",
COCCn1c(-c2ccc(Cl)cc2)cnc1SCC(=O)NCc1cccs1,"inconclusive [inhibitor, single point]",
Cc1ccc(C)c(CN2C(=O)c3ccccc3S(=O)c3ccc(C(=O)NCc4ccco4)cc32)c1 (stereo unspecified),"inconclusive [inhibitor, single point]",
Cc1cc(C)c(S(=O)(=O)Nc2cccc(-c3cn4ccccc4n3)c2)c(C)c1,active: 18.4 µM,
Cc1cc(C(F)F)nn1CC(=O)NC1C(=O)N2C(C(=O)O)=C(CSc3nnnn3C)CSC12 (stereo unspecified),inactive,

SMILES,Potency,"activity change, negative = growth inhibition"
CCO[C@@H]1OC(C(=O)NC2CC2)=C[C@H](c2ccc(C(F)(F)F)cc2)[C@H]1CCCO,"inconclusive [inhibitor, single point]",
COc1ccccc1CNc1nc(-c2ccc3c(c2)OCO3)nc2ccccc12,"inconclusive [inhibitor, single point]",
CCc1nc(SCc2ccc(C(=O)OC)o2)c2c(=O)n(C)c(=O)n(C)c2n1,active: 14.6 µM,
Cc1ccc(NC(=O)c2cc(-c3ccccc3)nn2-c2ccccc2)cc1,"inconclusive [inhibitor, partial curve, poor fit]",
CN(C(=O)c1cccc(NC(=O)Cc2ccc(NC(=O)C3CCN(C(=O)C4CCCCC4)CC3)cc2)c1)C1CCC1,"inconclusive [inhibitor, single point]",
CC1(C(=O)NC2CCCC2)CCC(=O)N1C1CCN(Cc2ccccc2)CC1 (stereo unspecified),inactive,
Cc1ccc(C)c(N2CCN(C(=O)COc3cc(=O)n(C)c4ccccc34)CC2)c1,active: 14.6 µM,
COc1ccc(CNC(=O)Cn2ccc3cc(S(=O)(=O)N4CCCCCC4)ccc32)c(OC)c1,"inconclusive [inhibitor, single point]",
Cc1ccc(C)c(N(C(=O)c2nsc(Cl)c2Cl)C(C(=O)NC2CCCC2)c2ccc(O)cc2)c1 (stereo unspecified),"inconclusive [inhibitor, single point]",
Cc1ccc(C(=O)Oc2ccc3c(c2)ncn3C)cc1,inactive,
O=C1[C@H]2[C@@H](c3ccc(C(F)(F)F)cc3)N[C@]3(CCCN(Cc4ccc(Br)cc4)C3=O)[C@H]2C(=O)N1Cc1ccccc1,inactive,
COC(=O)c1c(SCC(=O)Nc2ccccc2OC)[nH]c2ccccc2c1=O,active: 23.1 µM,
CC1CCCN(c2nc(N(C)c3ccccc3)nc(N)c2[N+](=O)[O-])C1 (stereo unspecified),"inconclusive [inhibitor, single point]",
Cc1cc2ccccc2n1-c1ccc(C(=O)N2CCC(C(=O)NCc3ccc(F)cc3)CC2)s1,active: 20.6 µM,
COC(=O)CNC(=O)Cc1c(F)cccc1Cl,inactive,
CC(=O)c1ccc(S(=O)(=O)Nc2ccc(C(=O)NCCCn3ccnc3)cc2)cc1,inactive,
CC(C)(C)OC(=O)NCCCCCNC(=O)c1[nH]cnc1C(=O)Nc1cc(Br)ccc1F,active: 11.6 µM,
COc1ccc(Oc2nc3c(c(=O)n(Cc4ccccc4Cl)c(=O)n3C)n2C)cc1,"inconclusive [inhibitor, single point]",
O=c1c2ccccc2nc(/C=C/c2ccc(Br)cc2)n1CCO,"inconclusive [inhibitor, single point]",
CNS(=O)(=O)c1cccc(C(=O)OCC(=O)C23CC4CC(CC(C4)C2)C3)c1,"inconclusive [inhibitor, partial curve]",
